Data as given in PubChem BioAssay AID1460 (National Center for Advancing Translational Sciences (NCATS), 2008).
Out of some 270,000 compounds screened, about 5,800 (2.1%) were called active. This list was built around the results that the source calls inconclusive (neither active nor inactive); the mix of calls is not that of the screen. Calls come from the whole dose curve; as a rule, active = well fitted inhibition curve with a large enough effect; inconclusive = small, poorly fitted or top-dose-only effect; inactive = flat fitted curve, though single readings scatter. Potencies beside an inconclusive call are fits to weak or partial responses and may not hold up.

molecular target: Microtubule-associated protein tau (Homo sapiens) (UniProt P10636); assay: qHTS for Inhibitors of Tau Fibril Formation, Thioflavin T Binding; conditions: recombinant tau K18 P301L (four-repeat tau fragment), heparin-induced fibrillization, ThT fluorescence; series mostly up to 57.4 µM; activity, negative = inhibition: at the top concentration; note: nearly all actives have a fitted effect of over 55% in size
Procedure, shortened: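 Heparin-induced fibrillization of the P301L-mutant K18 repeat-domain fragment of human tau was followed by ThT binding in quantitative high-throughput format.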
% is set by controls: 0 for no effect and ±100 for the full control effect; potency is the fitted concentration of half-maximal effect; tags give direction and shape of the fitted curve.

Sequence of UniProt P10636 (P10636 whole entry, looked up, the tested form may be a part): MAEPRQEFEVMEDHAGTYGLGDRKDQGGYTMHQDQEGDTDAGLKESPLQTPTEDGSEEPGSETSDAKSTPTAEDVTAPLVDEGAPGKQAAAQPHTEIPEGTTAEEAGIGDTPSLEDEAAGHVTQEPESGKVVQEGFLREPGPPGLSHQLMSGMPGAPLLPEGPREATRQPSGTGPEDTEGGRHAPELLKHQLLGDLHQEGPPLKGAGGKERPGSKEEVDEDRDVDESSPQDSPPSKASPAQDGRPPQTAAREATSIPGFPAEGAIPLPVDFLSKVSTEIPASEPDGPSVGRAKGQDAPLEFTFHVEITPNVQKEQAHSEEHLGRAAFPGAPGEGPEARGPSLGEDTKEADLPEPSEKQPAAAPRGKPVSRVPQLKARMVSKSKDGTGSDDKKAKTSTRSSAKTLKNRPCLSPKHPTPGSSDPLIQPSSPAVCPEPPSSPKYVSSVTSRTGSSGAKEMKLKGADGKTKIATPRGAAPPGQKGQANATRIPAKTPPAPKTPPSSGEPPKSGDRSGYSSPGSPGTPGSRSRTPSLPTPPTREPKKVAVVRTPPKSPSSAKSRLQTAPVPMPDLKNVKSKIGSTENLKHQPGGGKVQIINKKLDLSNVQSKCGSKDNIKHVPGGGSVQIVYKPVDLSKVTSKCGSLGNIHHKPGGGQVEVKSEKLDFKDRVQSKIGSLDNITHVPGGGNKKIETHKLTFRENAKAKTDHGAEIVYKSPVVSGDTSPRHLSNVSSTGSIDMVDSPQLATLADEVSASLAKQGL

Question: With `N#CCSc1nc(Nc2ccc3c(c2)OCO3)c2ccccc2n1` as the compound, how does the “activity, negative = inhibition” value read?
Answer: inactive: -17%

Question: For `CCCCN(C)CC(O)Cn1cc(/C=C/C(=O)c2ccc(OC)c(OC)c2)c2ccccc21` (stereo unspecified), which Potency is on record?
Answer: inconclusive: 12.6 µM [inhibitor, partial curve]

Question: `Cc1cccc(-n2c(=O)c3c(n4cnnc24)-c2ccccc2CC32CCCCC2)c1` was tested. Which “activity, negative = inhibition” value did it give?
Answer: inactive: -13.7%

Question: `CCCCc1nn2c(=O)cc(COC(=O)c3cccc(NC(=O)c4cccc(C)c4)c3)nc2s1` was tested. Which Potency did it give?
Answer: inconclusive: 0.891 µM [inhibitor, full curve]

Question: For `S=c1[nH]nc(-c2ccco2)n1/N=C/c1ccc(Cl)cc1Cl`, which Potency is on record?
Answer: inconclusive: 31.6 µM [inhibitor, single point]

Question: With `O=c1c2ccccc2oc2ccccc12` as the compound, how does the Potency read?
Answer: inconclusive: 22.4 µM [inhibitor, partial curve]

Question: With `COc1ccc(OC)c(-c2nc(C(N)=O)c3c(n2)n(-c2ccc4c(c2)OCO4)c(=O)n3C)c1` as the compound, how does the “activity, negative = inhibition” value read?
Answer: inactive: -10.3%

Question: With `CCC(=O)Oc1ccc(-c2cnc3ccccc3n2)cc1` as the compound, how does the Potency read?
Answer: inconclusive: 17.8 µM [inhibitor, partial curve]

Question: With `CSc1ncc(Cl)c(C(=O)Nc2nc3ccc(F)cc3s2)n1` as the compound, how does the “activity, negative = inhibition” value read?
Answer: inactive: 0.0836%

Question: For `COc1ccc(/C=C/C(=O)c2cc(Br)ccc(=O)c2O)cc1`, which Potency is on record?
Answer: active: 4.47 µM

Question: With `COc1ccc(-c2nnc(SCC(=O)Nc3nc4ccccc4s3)n2C)cc1` as the compound, how does the Potency read?
Answer: inconclusive: 0.447 µM [inhibitor, full curve]

Question: With `Cn1c(CBr)c(C(=O)c2ccc([N+](=O)[O-])cc2)c(=O)n(C)c1=O` as the compound, how does the Potency read?
Answer: inconclusive: 12.6 µM [inhibitor, partial curve]

Question: With `COc1cnc(SCCC(F)=C(F)F)[nH]c1=O` as the compound, how does the “activity, negative = inhibition” value read?
Answer: inactive: -7.11%

Question: `Cn1c(-c2ccccc2)cnc1NCc1cc2c(cc1[N+](=O)[O-])OCO2` was tested. Which “activity, negative = inhibition” value did it give?
Answer: inactive: -15.7%

Question: Which Potency does the source give for `CCN(C(=O)CSc1nc2cc(C(=O)OC)ccc2c(=O)n1Cc1ccco1)c1cccc(C)c1` here?
Answer: inconclusive: 28.2 µM [inhibitor, single point]

Question: Which “activity, negative = inhibition” value does the source give for `CC(C)(C)NC(=S)NC1CC1` here?
Answer: inactive: -1.17%

Question: For `CCOC(=O)c1ccc(NC(=O)CCC2COc3ccccc3O2)cc1` (stereo unspecified), which Potency is on record?
Answer: inconclusive: 8.91 µM [inhibitor, partial curve, poor fit]

Question: `CC(=O)c1cccc(N(C(=O)Cn2nnc3ccccc32)C(C(=O)NCc2ccccc2)c2ccc(F)cc2)c1` (stereo unspecified) was tested. Which “activity, negative = inhibition” value did it give?
Answer: inactive: -11.7%

Question: Which Potency does the source give for `Cc1cc(/C=C2\SC(=S)NC2=O)cc(C)c1O` here?
Answer: inconclusive: 7.94 µM [inhibitor, partial curve]

Question: For `O=C(NC1CCCc2ccccc21)C1CCN(c2nnc(-n3cccc3)s2)CC1` (stereo unspecified), which Potency is on record?
Answer: inconclusive: 15.8 µM [inhibitor, partial curve]

Question: How did the Potency turn out when `C/C(=N\NC(=O)COc1ccccc1)c1ccc(O)cc1` was run?
Answer: inconclusive: 22.4 µM [inhibitor, partial curve]

Question: `Cc1ccc(-c2cnn(-c3cccc(C(F)(F)F)c3)c2N)cc1` was tested. Which Potency did it give?
Answer: inconclusive: 1.12 µM [inhibitor, full curve]

Question: With `COc1ccccc1C(=O)c1c(N)c(-c2nc(-c3ccccc3)cs2)c2ccccn12` as the compound, how does the Potency read?
Answer: inconclusive: 5.01 µM [inhibitor, partial curve]

Question: For `CC(C)NC(=O)c1ccc2c(=O)n(Cc3ccco3)c(=S)[nH]c2c1`, which “activity, negative = inhibition” value is on record?
Answer: inactive: 3.61%

Question: For `CCCn1c(SC(C(=O)Nc2cc(C)ccc2OC)c2ccccc2)nc2ccccc2c1=O` (stereo unspecified), which “activity, negative = inhibition” value is on record?
Answer: inactive: -0.357%

Question: `Cn1nnnc1SCC(=O)Nc1ccc(Br)cc1Cl` was tested. Which “activity, negative = inhibition” value did it give?
Answer: inactive: -0.418%

Question: For `COc1cc(/C=N/N2CCN(C3c4ccccc4-c4ccccc43)CC2)cc(OC)c1O`, which Potency is on record?
Answer: inconclusive: 17.8 µM [inhibitor, partial curve]

Question: With `O=c1oc(-c2ccccc2NS(=O)(=O)c2ccc(Cl)cc2)nc2ccccc12` as the compound, how does the Potency read?
Answer: inconclusive: 12.6 µM [inhibitor, partial curve, poor fit]

Question: `COc1ccccc1NC(=S)N/N=C/c1cccc(C)c1` was tested. Which Potency did it give?
Answer: inconclusive: 3.55 µM [inhibitor, full curve]

Question: Which Potency does the source give for `O=C(OCc1ccccc1F)c1ccc2c(c1)-c1ccccc1C2=O` here?
Answer: inconclusive: 11.2 µM [inhibitor, partial curve]

Question: With `Clc1ccccc1-c1nc(/C=N/N2CCOCC2)c2ccccn12` as the compound, how does the Potency read?
Answer: inconclusive: 15.8 µM [inhibitor, partial curve]

Question: With `O=C(Cc1ccccn1)Nc1ccccc1` as the compound, how does the “activity, negative = inhibition” value read?
Answer: inactive: 9.82%

Question: With `Nc1nc(-c2ccc(Br)cc2)cs1` as the compound, how does the Potency read?
Answer: inconclusive: 20 µM [inhibitor, partial curve]

Question: Which Potency does the source give for `COc1cc(/C=N/Nc2cccc(C)c2)cc(Br)c1O` here?
Answer: inconclusive: 15.8 µM [inhibitor, partial curve]

Question: `CCCC1C2C(=O)N(c3ccccc3)C(=O)C2ON1c1ccccc1` (stereo unspecified) was tested. Which “activity, negative = inhibition” value did it give?
Answer: inactive: -2.53%

Question: `Cc1cccc(N2CCN(c3ncnc4onc(C)c34)CC2)c1C` was tested. Which Potency did it give?
Answer: inconclusive: 14.1 µM [inhibitor, partial curve]

Question: How did the Potency turn out when `COC(=O)c1cccc(Nc2c(-c3ccc(SC)cc3)nc3nc[nH]n23)c1` was run?
Answer: inconclusive: 25.1 µM [inhibitor, single point]

Question: With `COc1ccc(CCNC(=O)Cn2c(=O)c3sccc3n(CC(=O)Nc3cccc(C(F)(F)F)c3)c2=O)cc1OC` as the compound, how does the Potency read?
Answer: inconclusive: 15.8 µM [activator, partial curve]

Question: For `O=c1c(O)c(-c2ccc(O)cc2)oc2ccc(O)cc12`, which Potency is on record?
Answer: inconclusive: 1.26 µM [inhibitor, full curve, poor fit]

Question: With `COc1cccc2cc(C(=O)CC3(O)C(=O)N(Cc4ccccc4)c4ccccc43)c(=O)oc12` (stereo unspecified) as the compound, how does the “activity, negative = inhibition” value read?
Answer: inactive: -11.4%

Question: For `O=[N+]([O-])c1ccc(N/N=C/c2ccc(OCc3cccc4ccccc34)cc2)nc1`, which Potency is on record?
Answer: inconclusive: 1.58 µM [inhibitor, partial curve]

Question: `Cc1ccc(C(=O)N/N=C(\CC(C)C)c2ccccc2)cc1` was tested. Which Potency did it give?
Answer: inconclusive: 28.2 µM [inhibitor, single point]

Question: How did the Potency turn out when `CCn1c(=O)c(=O)n(CC)c2cc(N3CCCCC3)c(NC(=O)c3ccc(OC)c(OC)c3)cc21` was run?
Answer: inconclusive: 14.1 µM [inhibitor, partial curve]

Question: How did the “activity, negative = inhibition” value turn out when `Cc1ccc(CCN2CC(C(=O)NCc3ccco3)CC2=O)cc1` (stereo unspecified) was run?
Answer: inactive: -6.1%

Question: With `CC1=C(C(=O)Nc2cc(Cl)ccc2C)C(c2ccccc2F)n2ncnc2N1` (stereo unspecified) as the compound, how does the “activity, negative = inhibition” value read?
Answer: inactive: 7.35%

Question: With `Cc1cc(C=O)c(C)n1-c1ccc(NC2CCCCC2)c([N+](=O)[O-])c1` as the compound, how does the Potency read?
Answer: active: 14.1 µM
